Assay results taken from the supplement of paper PMC3334620.
Whole data set: some 33,000 sequences, median “E-score (-0.5 to 0.5)” near -0.012, cut for the highest 2% near 0.27. Some of the results follow.

Target: T1, Vhr1 (UniProt P40522)
T1 sequence: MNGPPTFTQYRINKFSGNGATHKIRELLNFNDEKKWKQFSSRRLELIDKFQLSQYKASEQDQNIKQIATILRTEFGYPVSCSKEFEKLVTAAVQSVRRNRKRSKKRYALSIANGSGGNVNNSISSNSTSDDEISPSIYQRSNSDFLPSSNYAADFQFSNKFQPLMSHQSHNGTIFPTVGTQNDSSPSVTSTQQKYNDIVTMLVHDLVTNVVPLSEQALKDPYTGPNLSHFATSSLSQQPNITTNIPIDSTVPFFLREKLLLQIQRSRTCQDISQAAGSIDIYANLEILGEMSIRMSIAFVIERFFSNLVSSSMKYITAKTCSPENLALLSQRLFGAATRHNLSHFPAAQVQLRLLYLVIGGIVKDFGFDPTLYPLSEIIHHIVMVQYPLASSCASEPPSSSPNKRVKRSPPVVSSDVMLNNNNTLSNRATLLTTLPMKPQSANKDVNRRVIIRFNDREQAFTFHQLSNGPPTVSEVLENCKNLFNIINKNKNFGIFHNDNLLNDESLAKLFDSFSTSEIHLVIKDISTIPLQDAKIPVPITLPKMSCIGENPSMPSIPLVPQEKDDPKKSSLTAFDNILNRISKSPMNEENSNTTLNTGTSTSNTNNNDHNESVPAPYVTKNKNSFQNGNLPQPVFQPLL
Experiment: PBM E-score (8-mer binding enrichment) (E-score (-0.5 to 0.5)); higher = stronger / more preferred TF binding; most listed sequences are background and not binding sites
Settings: protein concentration: 200 nM; construct: GST-full length
Procedure: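 Universal 'all 10-mer' protein binding microarrays (Agilent AMADID 015681) probed with GST-tagged S. cerevisiae TFs (full-length or DBD) made by in vitro transcription/translation (PURExpress), about 100-200 nM. Bound TF was detected with fluorescent anti-GST. Each ungapped 8-mer (which stands for itself and its reverse complement) is scored by the PBM enrichment score (E-score), a modified Wilcoxon-Mann-Whitney statistic from -0.5 to +0.5, computed with the Universal PBM Analysis Suite. Scale: above 0.35 generally sequence-specific binding.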

Sequence	PBM E-score
ATGAGTGG	0.162
ACGCGCAT	0.0217
CAATAAAG	0.048
CCCCTGGA	-0.121
TAAGAGCA	-0.00784
ATAACGTA	0.112
ATGCTGTG	0.116
CACGAACA	0.168
ATGTTTGA	0.028
TCCTGGCA	0.1
CGCCGGGA	0.0158
GCGCTCCC	0.0224
CATGTATA	0.28
AGGTCTCG	-0.0622
GTTTCGAA	-0.151
AGCCCCCA	-0.281
TCCTTGCA	-0.0963
GTACGAAC	0.152
GCAGAACA	0.091
GACCAGAA	0.0475
GCGAGGCC	-0.143
ACCAACCG	0.00393

Sequence	PBM E-score
GCCGGGCC	-0.0591
ACGAATAA	0.0738
GGGCCTTA	-0.279
CTACTGGA	0.0706
TCCGTGAA	-0.165
ACGATCGC	-0.0057
AGCGAACA	-0.103
AGGGACAA	-0.142
GTAAAGGA	-0.0902
CACTTGAG	0.0278
ACCCCCTA	-0.206
AGATATCC	0.147
AAATGATT	0.187
ATGTCAGA	-0.0499
AGGGAGCC	-0.0866
ACAATCAC	0.275
CTGGCTAA	0.0471
CAATGGTA	0.129
ACTGTGTC	0.125
ACGAACAA	-0.0446
AATTAGGG	-0.114
AGTGTAAC	-0.0587

Sequence	PBM E-score
CACGCACA	0.0774
GCCACACA	0.152
GAAGAATA	-0.201
CGGGGACG	0.0859
TGGATGAA	-0.0248
CGCCCCCG	-0.0889
ACTTACGC	-0.0448
GACTCTGA	0.252
GTCGGGGA	0.101
AAGGCCCC	-0.385
GCAGGCGC	-0.0603
ATTCGAAC	0.055
GCGCACGC	0.00055
ATACTCGG	0.132
AAGAATAC	0.0498
AGTGTTTC	-0.109
TGCTCACA	0.0508
AGTTGAAC	0.007
CCGAGGAG	0.0404
CGGAGTAG	-0.0207
AGATAGCT	-0.202
GACAATTA	0.056

Sequence	PBM E-score
ACGAGGCG	0.0194
GCACCCAA	-0.0528
ATGGGTTG	0.229
CTAAGCAG	0.0326
TCAATCCA	0.0906
GCGATCAA	-0.0459
GTCATGTA	0.141
GATTGGCA	-0.056
ACCAGCAA	0.118
CTACCCTC	0.0437
ACGAGCCT	-0.0437
AGCTAGAC	-0.0711
CGTAGGCC	-0.0834
GCCCTCGA	-0.151
AGCGTATC	-0.0457
GGACTTAC	-0.163
ATGAGATA	0.134
CCCGTCTC	0.168
TCCGAGGA	-0.0878
CCGGTCCG	0.112
